We go through 115 sequences from the BET-seq Pho4 binding data (Le et al. 2018).

The list shows a part of the results. The energies were worked out here from pooled read counts, against the library average; single values are noisy.

The assay addresses T1, Pho4 (S. cerevisiae) (UniProt P07270).
T1 sequence: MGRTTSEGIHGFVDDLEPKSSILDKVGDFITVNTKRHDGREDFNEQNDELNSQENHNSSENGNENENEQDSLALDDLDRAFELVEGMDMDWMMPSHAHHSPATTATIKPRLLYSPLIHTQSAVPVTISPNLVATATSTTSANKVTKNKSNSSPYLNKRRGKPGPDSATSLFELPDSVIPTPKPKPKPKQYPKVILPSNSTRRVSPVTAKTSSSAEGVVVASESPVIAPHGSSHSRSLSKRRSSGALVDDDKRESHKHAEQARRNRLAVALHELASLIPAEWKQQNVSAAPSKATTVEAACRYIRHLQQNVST
The assay is described as follows: relative binding free energy (BET-seq); higher = weaker binding. The settings on record: reference: library average.
Regarding AATGGCACGTGTAGCG, the “relative binding free energy” value was -0.07 kcal/mol.
The value for TTAGACACGTGTGGCG was 0.07 kcal/mol; that for GTGTGCACGTGCTGGG was -0.1 kcal/mol.
The result for TTTTTCACGTGAAGTA reads 0.4 kcal/mol.
The value for AAGGTCACGTGTACGT was 0.13 kcal/mol.
Take CGGTGCACGTGGCTAT: the “relative binding free energy” value came out at 0.06 kcal/mol.
The result for TAATGCACGTGGAGAG reads -0.05 kcal/mol; that for GATGGCACGTGGCTGG, -0.01 kcal/mol; that for AGTTGCACGTGATATT, 0.03 kcal/mol.
Take GTATACACGTGGGGTT: the “relative binding free energy” value is -0.05 kcal/mol.
The result for AGAGTCACGTGTGATG reads 0.24 kcal/mol; that for TTTGCCACGTGAGCGT, -0.03 kcal/mol.
The result for TGGTACACGTGTTATC reads 0.18 kcal/mol.
The result for AGAGGCACGTGGCGAT reads -0.22 kcal/mol.
Regarding AAGTGCACGTGTGGAT, the “relative binding free energy” value was -0.2 kcal/mol.
The result for TATTGCACGTGTGACT reads -0.05 kcal/mol; that for TGTGCCACGTGTTTGT, -0.2 kcal/mol.
Regarding TAAATCACGTGGTAGA, the “relative binding free energy” value stood at 0.12 kcal/mol.
The result for AGAAGCACGTGAGGTT reads 0.23 kcal/mol.
Turning to TGAGGCACGTGGAACG, the “relative binding free energy” value was -0.13 kcal/mol.
The result for GTAGTCACGTGAGGGT reads 0.37 kcal/mol; that for TAAGTCACGTGTTCTG, 0.13 kcal/mol; that for AGGTACACGTGATATT, 0.11 kcal/mol.
The value for TGAATCACGTGTTATA was 0.15 kcal/mol.
The result for TAAGGCACGTGTAGAT reads 0.08 kcal/mol; that for TGCGGCACGTGAAATT, 0.14 kcal/mol.
For the sequence TATATCACGTGCTAGG, the “relative binding free energy” value amounted to 0.04 kcal/mol.
The result for TACTGCACGTGATAGT reads 0.19 kcal/mol.
Take ATAGTCACGTGTAATG: the “relative binding free energy” value amounted to 0.17 kcal/mol.
The result for ATTGTCACGTGCAATT reads 0.16 kcal/mol; that for CGTTGCACGTGATGGG, 0.08 kcal/mol.
The result for TTTGGCACGTGATGCG reads -0.07 kcal/mol; that for AGGGCCACGTGAGATG, 0.09 kcal/mol.
Regarding TTGTGCACGTGGGAGC, the “relative binding free energy” value was -0.1 kcal/mol.
As for GTTTTCACGTGGCGTC, the “relative binding free energy” value amounted to 0.35 kcal/mol.
Take TAGTGCACGTGTGGGT: the “relative binding free energy” value was 0.01 kcal/mol.
The result for TTTTACACGTGTAAGT reads 0.16 kcal/mol.
The value for AGGGACACGTGGTATG was -0.15 kcal/mol; that for CGTGTCACGTGGTTGT was 0.06 kcal/mol.
With GTTATCACGTGTCTAT, the “relative binding free energy” value amounted to 0.27 kcal/mol.
The value for TTTCACACGTGAGAGT was 0.4 kcal/mol; that for TAATACACGTGTTGTG was 0.04 kcal/mol; that for TGATTCACGTGGCTGA was 0.19 kcal/mol.
The result for GGCTGCACGTGGCGAG reads -0.02 kcal/mol.
For the sequence GGTAGCACGTGGTTGC, the “relative binding free energy” value was found to be 0.02 kcal/mol.
The result for AGTATCACGTGGTCAG reads 0.07 kcal/mol; that for AGTTGCACGTGGGTTC, -0.05 kcal/mol; that for TTATGCACGTGGGGTG, -0.21 kcal/mol.
The result for GTGGACACGTGATTGG reads 0.18 kcal/mol; that for GTACGCACGTGGATTT, 0.05 kcal/mol.
The value for GCTTTCACGTGGGTAT was 0.19 kcal/mol; that for GTTACCACGTGAGGAG was 0.33 kcal/mol.
Regarding ATTGCCACGTGGGAGT, the “relative binding free energy” value was -0.16 kcal/mol.
The value for GTAAGCACGTGGTGGA was 0.11 kcal/mol.
The result for AGTGACACGTGTATGT reads -0.15 kcal/mol; that for GGTTTCACGTGTATAT, 0.32 kcal/mol; that for GTTCTCACGTGAATTT, 0.42 kcal/mol.
On to GTTTTCACGTGAGCAG, for which the “relative binding free energy” value was 0.48 kcal/mol.
Take TGGTGCACGTGTACTT: the “relative binding free energy” value came to 0.07 kcal/mol.
The value for AGGATCACGTGTTGTT was 0.07 kcal/mol.
The result for ATTCTCACGTGGGGTA reads 0.03 kcal/mol.
The value for ATGTGCACGTGCCAGG was -0.12 kcal/mol.
On to CGTGGCACGTGGGGAA, for which the “relative binding free energy” value is -0.23 kcal/mol.
The value for ATTGACACGTGGATAG was 0.02 kcal/mol; that for AAGTGCACGTGTGGTC was -0.01 kcal/mol; that for GGTCGCACGTGCTTGT was 0.11 kcal/mol.
The result for TCAATCACGTGTTGTG reads 0.09 kcal/mol.
The result for TTGGACACGTGTAGAG reads 0.05 kcal/mol.
For GTAATCACGTGTAATG, the “relative binding free energy” value was determined as 0.24 kcal/mol.
The result for TATATCACGTGACGTT reads 0.14 kcal/mol; that for TTAGGCACGTGAGTTG, 0.06 kcal/mol.
The value for TGTGACACGTGACATG was 0 kcal/mol; that for TTGGTCACGTGCTTAG was -0.04 kcal/mol.
The value for TCGTTCACGTGGGCGT was 0.21 kcal/mol; that for TGCGACACGTGAAGGG was 0.31 kcal/mol; that for GTATGCACGTGGGAGC was -0.13 kcal/mol.
With GTATCCACGTGTAAGG, the “relative binding free energy” value is 0.27 kcal/mol.
The value for TGCTTCACGTGGTTTA was 0.22 kcal/mol; that for ACTATCACGTGAGGGG was 0.22 kcal/mol.
As to TAACTCACGTGTGGGT, the “relative binding free energy” value came to 0.37 kcal/mol.
The value for GACGGCACGTGGTATG was -0.11 kcal/mol; that for GGGAACACGTGTGTAG was 0.05 kcal/mol; that for TGCTTCACGTGAGGAG was 0.27 kcal/mol.
The value for GGCGTCACGTGGGGTA was -0.18 kcal/mol; that for TTTATCACGTGTTAGG was 0.18 kcal/mol.
The value for TTTGACACGTGCGGGA was -0.05 kcal/mol.
Take GATGTCACGTGTTATC: the “relative binding free energy” value was found to be 0.18 kcal/mol.
The result for GGATGCACGTGTAGGG reads -0.05 kcal/mol; that for TATATCACGTGGTTTT, 0.19 kcal/mol.
The result for TGGGGCACGTGTGGAC reads 0.03 kcal/mol; that for TGTAGCACGTGATATT, 0.08 kcal/mol.
The result for TAGGGCACGTGCGGAG reads -0.26 kcal/mol; that for TGGAGCACGTGGGTAC, -0.13 kcal/mol; that for GGAGACACGTGTGGTG, -0.04 kcal/mol.
For GGAAACACGTGTGTAG, the “relative binding free energy” value is 0.14 kcal/mol.
The value for AGTAACACGTGGTGCA was -0.13 kcal/mol; that for TGTGGCACGTGTGACC was 0.08 kcal/mol; that for TAATACACGTGTTAAG was 0.11 kcal/mol.
The result for GGAGTCACGTGGGTGT reads -0.02 kcal/mol; that for GAAATCACGTGGTAGG, 0.15 kcal/mol; that for TTGTGCACGTGGCGAG, -0.16 kcal/mol.
The result for TAGCGCACGTGTTAGT reads -0.06 kcal/mol; that for TTAATCACGTGATATA, 0.19 kcal/mol.
Regarding GGCGTCACGTGGTATA, the “relative binding free energy” value amounted to 0.06 kcal/mol.
Consider GAGGACACGTGGGCAG, for which the “relative binding free energy” value is -0.02 kcal/mol.
With CAGCGCACGTGGGGTG, the “relative binding free energy” value is -0.32 kcal/mol.
The result for CAGGACACGTGTGTCG reads 0.24 kcal/mol; that for ATTTTCACGTGATTGA, 0.45 kcal/mol.
For ATGAACACGTGAGTTA, the “relative binding free energy” value came out at 0.2 kcal/mol.
The result for AATTTCACGTGACTTT reads 0.33 kcal/mol.
The result for AGTCTCACGTGATTGT reads 0.14 kcal/mol; that for GAGTGCACGTGCGAAG, 0.1 kcal/mol; that for AAGTGCACGTGGAGAT, 0 kcal/mol.
The value for TGGTACACGTGGATGT was 0.17 kcal/mol.
Consider TTCTACACGTGGGAGG, for which the “relative binding free energy” value was 0.05 kcal/mol.
